The values below come from the supplement of paper PMC11417369.

± gives the standard deviation of the averaged measurements. The list shows a part of the results.

This assay relates to PfAP2-G AP2 domain (GST-tagged). In words: gcPBM binding intensity (ln(normalized median fluorescence intensity)); higher = stronger DNA binding. In short, it runs like this: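 Probes on an Agilent 4 × 180k array were primer-extended, double-stranded and 36 bp long, taken from intergenic genomic regions, with negative controls added. GST-tagged P. falciparum DNA-binding domains from E. coli, about 25 μg on average, were applied to the array for 1 h in 1× PBS containing 1% milk, 0.2 mg/ml BSA, 0.5% salmon testes DNA and 0.03% Triton X-100. Binding intensity, obtained after Alexa488 anti-GST antibody detection and a 488 nm scan, is the highest Masliner-normalised natural-log median intensity across replicate spots of either probe orientation.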
Regarding “TATATAAGCGCATGCACACGCAAAGGTATATAAATA [CACACA_site622]”, the “gcPBM binding intensity (ln)” value turned out to be 10 ± 0.11.
Under “CATACATACGGACACACACACATATATATATATATA [CACACA_site5598]” stands 11.2 ± 0.83.
Under “ATAATGTTTCTTTCAACACACAAAAAATGAACACAT [CACACA_site1552]” stands 10.3 ± 0.2; under “AAAAAAGAAAAAAGGACACACATAAATATACTCACG [CACACA_site2904]”, 11.2 ± 0.91; under “TATACATACATACATACACACACACCGATATATATA [CACACA_site7896]”, 10.1 ± 0.16.
Under “TAATGACTGAAAAATTGTACATATGTATATATGTAT [XGTACX_site2415]” stands 10.8 ± 0.31.
In the case of “ATTCTATTATAATATTCACACACTAACGTAAATCAT [CACACA_site2750]”, the “gcPBM binding intensity (ln)” value is 10.1 ± 0.26.
For “ATAATTTTCCATATTTGTACATATTTTTTTCCCTTG [XGTACX_site8146]”, the “gcPBM binding intensity (ln)” value was 11 ± 0.49.
Take “ATTTAGAAAAAATATACACACAGCCTAAACATGCAT [CACACA_site4067]”: the “gcPBM binding intensity (ln)” value stood at 9.965 ± 0.078.
On to “AATATAAGCAAATACACACACACATATATATATATA [CACACA_site3805]”, for which the “gcPBM binding intensity (ln)” value is 10 ± 0.18.
In the case of “AAATGTTGAAAAATATGTACATATTATATATATTAT [XGTACX_site1165]” it was 11.3 ± 0.93; in that of “TAAGAAAGACAAAAAAAATGAAAAGAAAAAAAATGA [CACACA_negctrl_site1469]”, 9.745 ± 0.035; in that of “AAATGTTCTTAAAAATGAATAATATATATATATATA [CACACA_negctrl_site796]”, 9.88 ± 0.46.
Under “ATATTTATTATTATATGTACGTAACATCTTTATAAA [XGTACX_site7016]” stands 11.5 ± 0.98; under “CATAAATACATACATACACACATATATATATATATA [CACACA_site2106]”, 10.1 ± 0.23; under “TATTTATTTGTTTAAGGTACAGAACAAATTTTTATT [XGTACX_site7414]”, 11 ± 0.74.
For the sequence ATTGATTATTTTCTAGTGCATAAAATAATTTTTTTT, the “gcPBM binding intensity (ln)” value was determined as 9.79 ± 0.14.
Under “AGTGTCATATAAAATTGTACTTTTTTTTTTTTCTTT [XGTACX_site5651]” stands 11.5 ± 0.82; under “ATATACATATTATAATGTACATATTTTAATAACCTT [XGTACX_site7617]”, 11.2 ± 0.65.
Under “TTATCCTATACAAGGGAAAAATAAAATAAAATAAAT [TGCATGCA_negctrl_site272]” stands 9.79 ± 0.13.
Under “TAAAAAATATTATATACACACAGTATAAAAAAAAAT [CACACA_site4012]” stands 9.89 ± 0.12.
Regarding “TATTTCTTTTGGTTGGTGCATAAAATAATACAATAT [GTGCAC_site9916]”, the “gcPBM binding intensity (ln)” value is 10.4 ± 0.32.
Take “CAGACCTCTTTGTCATGTACATAAAAAAATAAAGAA [XGTACX_site7887]”: the “gcPBM binding intensity (ln)” value stood at 11.2 ± 0.83.
With “ATAAAAATAATATCATGTACATATGTGTATTGTATT [XGTACX_site1768]”, the “gcPBM binding intensity (ln)” value was determined as 11 ± 0.49.
Regarding “TACAAAAAGTTATACACACACGTACCTATAAATAGA [CACACA_site6571]”, the “gcPBM binding intensity (ln)” value amounted to 10.9 ± 0.51.
Consider “TATAAACAGACGAAAACACACATATGTAAATATATA [CACACA_site4428]”, for which the “gcPBM binding intensity (ln)” value came out at 10 ± 0.085.
Under “ATGAAAAAAAAAAAAAAAAAAAAAAAAAAAAAAAAA [CACACA_negctrl_site1405]” stands 9.725 ± 0.092; under “CTTGTACCTAGAAATACACACAATTATATAACTTAT [CACACA_site2838]”, 11 ± 0.61.
For the sequence “ATAAATGAAGATAAATTAAAAAAAAAAAAAAAAAAA [CACACA_negctrl_site992]”, the “gcPBM binding intensity (ln)” value came to 9.58 ± 0.41.
Under “GAATGTATTCATAAATGTACTTATAATATTATAATA [XGTACX_site3466]” stands 11.2 ± 0.81; under “ATAACATACATAACAACACACAATATTTATATGTAT [CACACA_site210]”, 9.85.
Regarding “AATACATAAATATTTTGTACATATTATATAAAATAT [XGTACX_site1627]”, the “gcPBM binding intensity (ln)” value turned out to be 10.8 ± 0.52.
For the sequence “CGACTTTTAAAATATACACACATATATATATATATA [CACACA_site825]”, the “gcPBM binding intensity (ln)” value was found to be 10.1 ± 0.4.
For “TATAAGAAAATAATGTGTACTAAATAATAAATGCAT [XGTACX_site1204]”, the “gcPBM binding intensity (ln)” value amounted to 11.3 ± 0.9.
Consider “CCACATGAGATGATTACACACATATAAATATTTACA [CACACA_site6222]”, for which the “gcPBM binding intensity (ln)” value stood at 10.05 ± 0.042.
Consider “ACTTTTTAATAATAATAATTATATATATATATATAT [TGCATGCA_negctrl_site459]”, for which the “gcPBM binding intensity (ln)” value was 9.98 ± 0.33.
Regarding “ATATATATTTAATTTACACACAAAAAAAATTGTTGG [CACACA_site961]”, the “gcPBM binding intensity (ln)” value turned out to be 9.94.
In the case of “TCCATTCTATTTTTTACACACGTATGTAAATATTAT [CACACA_site2686]” it was 10.3 ± 0.26.
In the case of “ACGAATTAAATGGATTAATATATATATGTATATTTA [CACACA_negctrl_site1512]” it was 9.63 ± 0.2.
“TTAAATACTTTTCGAAGTACATTATATATATAATAT [XGTACX_site7530]”: the “gcPBM binding intensity (ln)” value was found to be 11.2 ± 0.69.
Turning to “CGCAACACTATTTGGGTGCTCTTCAAAAAAAAAAAA [GTGCAC_site9598]”, the “gcPBM binding intensity (ln)” value came out at 10 ± 0.33.
In the case of “AGAATATATATAATAGTGCAATGTACAATGAACAAA [GTGCAC_site9577]”, the “gcPBM binding intensity (ln)” value was 10.7 ± 0.34.
Under “AAAAAAAAATATATTGCACACCTCTCAATAAAAAAA [CACACA_site172]” stands 10 ± 0.3.
Under “ATTTGCTTTTATTTTACACACTTGCTCCTGTTGTAC [CACACA_site1088]” stands 10.9 ± 0.42; under “TGTTTAACATTTATATGTACATATATTCACATATTA [XGTACX_site342]”, 11.1 ± 0.67.
In the case of “TGATTTTTTTTTTTTTTTTTTTTTTTTTTAGTTTGC [CACACA_negctrl_site1057]” it was 9.63 ± 0.14; in that of “TAAAATATAAGACACACACACATATATTTATATATC [CACACA_site6248]”, 9.96 ± 0.099; in that of “TACCAAATCACCCCTTGTACCCATTTTAAAATTTTC [XGTACX_site396]”, 11.3 ± 0.72.
With “ATAAACAGATCATATACATGCATATATGTAGAATAA [TGCATGCA_site157]”, the “gcPBM binding intensity (ln)” value amounted to 9.765 ± 0.021.
In the case of “ATTCTAATTACATATACACACAAAGGTTCATAACAA [CACACA_site3076]” it was 10.2 ± 0.22.
For the sequence “TATATAAATGTATACACACACATATAAATATAAATA [CACACA_site6751]”, the “gcPBM binding intensity (ln)” value was 10.1 ± 0.18.
In the case of “TAACTACTAGAAAAAACACACAAAAAGTAAATATAT [CACACA_site2740]” it was 10.045 ± 0.007.
In the case of “TTCCCATGTAATATTAAACACACACCCATATAACAC [CACACA_site7905]” it was 10.7 ± 0.52.
In the case of “ACATACGAAAATTGGAAGGATAGATAAAAAGAAAAT [CACACA_negctrl_site51]” it was 9.88 ± 0.13.
For the sequence “ACGTAGTAGGTATTATGTACATATTTATAAGTATAA [XGTACX_site7336]”, the “gcPBM binding intensity (ln)” value amounted to 11.3 ± 0.64.
In the case of “ACATGTTCATAATTTTGTACATATTTTTATGAACAT [XGTACX_site3976]” it was 11.1 ± 0.69.
